The supplement of paper PMC7826260
The list shows a part of the results. Viral Rep nickase domains cut single-stranded DNA in vitro for 1 h at 37 °C with 3 µM enzyme; only the middle of the 90-letter strands is printed. Numbers give uncut DNA relative to the enzyme-free pool, as log2; strong cutting gives strongly negative numbers. There is no active / inactive call. The scaling is to total reads; uncut strands gain when others are lost, and binding without cutting may add a little.

Tests used:
Experiment in all cases: uncleaved DNA left, log2 of reads against the no-enzyme library (log2 ratio); higher = less cleavage (more negative = more Rep cleavage of the k-mer); sequences stand for … in CTCGTCCG…ACCGGAGA
[1] = system: T1, Rep nickase domain of Muscovy duck circovirus
T1 sequence (Rep 1-111, printed without the tag): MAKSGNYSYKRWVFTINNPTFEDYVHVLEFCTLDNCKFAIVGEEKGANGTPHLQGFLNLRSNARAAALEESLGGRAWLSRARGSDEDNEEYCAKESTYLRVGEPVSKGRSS
Experimental: (§1)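 A pool of 90-nt single-stranded DNAs with seven random bases just before the constant AC of the nick site (name = the seven bases) was cut by 3 µM recombinant His6-SUMO-tagged Rep nickase domain (300 nM DNA, 50 mM HEPES pH 8.0, 50 mM NaCl, 1 mM MnCl2, 1 h, 37 °C, three replicates). Uncut DNA was amplified and sequenced.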

[2] = system: T2, Rep nickase domain of banana bunchy top virus
T2 sequence (Rep 1-94, printed without the tag): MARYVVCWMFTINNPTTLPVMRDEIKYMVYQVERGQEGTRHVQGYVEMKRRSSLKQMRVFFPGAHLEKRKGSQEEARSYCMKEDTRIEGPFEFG
Experimental: as §1

[3] = system: T3, Rep nickase domain of cabbage leaf curl virus
T3 sequence (Rep 1-116, printed without the tag): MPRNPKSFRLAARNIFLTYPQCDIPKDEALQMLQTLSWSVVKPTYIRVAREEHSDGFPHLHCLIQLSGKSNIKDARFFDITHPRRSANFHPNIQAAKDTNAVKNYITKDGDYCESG
Experimental: as §1

[4] = system: T4, Rep nickase domain of chickpea chlorotic dwarf virus
T4 sequence (Rep 1-124, printed without the tag): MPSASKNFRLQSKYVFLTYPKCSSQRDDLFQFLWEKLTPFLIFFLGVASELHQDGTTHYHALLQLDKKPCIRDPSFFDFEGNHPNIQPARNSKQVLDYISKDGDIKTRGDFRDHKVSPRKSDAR
Experimental: as §1

[5] = system: T5, Rep nickase domain of faba bean necrotic yellows virus
T5 sequence (Rep 1-98, printed without the tag): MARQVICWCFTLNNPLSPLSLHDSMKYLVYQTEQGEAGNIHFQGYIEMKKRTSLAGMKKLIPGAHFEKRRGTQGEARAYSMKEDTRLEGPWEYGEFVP
Experimental: as §1

[6] = system: T6, Rep nickase domain of maize striate mosaic virus
T6 sequence (Rep 1-117, printed without the tag): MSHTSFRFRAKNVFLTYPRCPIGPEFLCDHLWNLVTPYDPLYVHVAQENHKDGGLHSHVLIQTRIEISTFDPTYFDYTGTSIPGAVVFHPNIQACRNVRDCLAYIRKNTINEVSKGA
Experimental: as §1

[7] = system: T7, Rep nickase domain of porcine circovirus 2
T7 sequence (Rep 2-116, printed without the tag): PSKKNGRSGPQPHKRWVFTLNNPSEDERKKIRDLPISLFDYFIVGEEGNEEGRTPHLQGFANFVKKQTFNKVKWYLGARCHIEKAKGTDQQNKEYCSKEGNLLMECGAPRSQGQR
Experimental: as §1

[8] = system: T8, Rep nickase domain of tomato golden mosaic virus
T8 sequence (Rep 1-124, printed without the tag): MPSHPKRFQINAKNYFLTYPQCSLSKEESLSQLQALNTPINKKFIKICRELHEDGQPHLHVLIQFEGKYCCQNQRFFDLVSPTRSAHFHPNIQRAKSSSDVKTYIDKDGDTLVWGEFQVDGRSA
Experimental: as §1

[9] = system: T9, Rep nickase domain of tomato yellow leaf curl virus
T9 sequence (Rep 1-136, printed without the tag): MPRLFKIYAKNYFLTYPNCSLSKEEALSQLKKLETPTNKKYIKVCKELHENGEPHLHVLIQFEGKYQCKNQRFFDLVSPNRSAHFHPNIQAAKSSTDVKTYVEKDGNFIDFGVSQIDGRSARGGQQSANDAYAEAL
Experimental: as §1

[10] = system: T10, Rep nickase domain of wheat dwarf virus
T10 sequence (Rep 1-137, printed without the tag): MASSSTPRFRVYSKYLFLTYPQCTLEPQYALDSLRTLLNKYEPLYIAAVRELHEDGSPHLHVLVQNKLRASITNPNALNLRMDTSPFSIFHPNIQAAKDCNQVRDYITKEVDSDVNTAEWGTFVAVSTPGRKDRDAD
Experimental: as §1

Row | Sequence | uncleaved DNA left (log2) [1] | uncleaved DNA left (log2) [2] | uncleaved DNA left (log2) [3] | uncleaved DNA left (log2) [4] | uncleaved DNA left (log2) [5] | uncleaved DNA left (log2) [6] | uncleaved DNA left (log2) [7] | uncleaved DNA left (log2) [8] | uncleaved DNA left (log2) [9] | uncleaved DNA left (log2) [10]
1 | GGATTGC | 0.00987 | 0.0301 | -0.465 | 0.0252 | 0.00652 | -0.407 | 0.135 | 0.0187 | 0.0285 | -0.0652
2 | GCATGTG | 0.055 | 0.00188 | -0.646 | -0.123 | 0.00827 | -0.751 | 0.185 | -0.123 | 0.124 | -0.0178
3 | TCGGTCA | -0.0309 | -0.135 | 0.402 | 0.908 | -0.105 | 1.01 | -0.152 | -0.0172 | -0.0348 | -0.0854
4 | TATTCAA | -1.52 | -0.235 | 0.191 | -0.361 | -0.0495 | -0.286 | -0.435 | -0.0371 | 0.0248 | 0.0592
5 | GGATCTC | -0.0549 | -0.0342 | 0.396 | 0.898 | -0.104 | 1.64 | -0.03 | -0.072 | 0.0156 | 0.0157
6 | CGGCCAT | -0.0163 | 0.0118 | 0.586 | 1.53 | 0.0122 | 1.72 | 0.0849 | -0.0894 | 0.0257 | 0.0807
7 | TTTGTTC | -0.039 | -0.151 | 0.0147 | -1.46 | -0.0364 | -0.655 | -0.327 | -0.278 | -0.0894 | -0.189
8 | AATCTTA | -0.132 | 0.0428 | -0.346 | -1.87 | 0.0335 | -0.746 | -0.297 | -0.0588 | -0.0984 | -0.0145
9 | ACAAATT | -0.071 | 0.00236 | -0.258 | -2.47 | 0.00755 | -0.752 | -0.0765 | 0.0434 | -0.043 | -0.0415
10 | TCTAATA | 0.102 | 0.0909 | 0.0372 | -1.28 | 0.0416 | -0.394 | -0.125 | 0.145 | 0.125 | 0.118
11 | TGCTGGC | -0.0277 | -0.00628 | 0.116 | 0.306 | -0.00264 | 0.253 | 0.0464 | -0.0628 | -0.0666 | -0.2
12 | CTGCATA | 0.109 | -0.0263 | -0.239 | -0.759 | 0.204 | -0.8 | -0.0282 | -0.0467 | 0.0972 | -0.00425
13 | GGAAAGA | -0.0185 | 0.0983 | 0.775 | 1.74 | -0.0699 | 1.92 | 0.261 | 0.031 | 0.0423 | 0.136
14 | GCAAACA | 0.104 | 0.19 | 0.11 | -1.24 | -0.00657 | -0.021 | 0.156 | 0.124 | 0.0455 | 0.0634
15 | TAAAAGT | 0.0156 | -0.138 | -3.39 | -3.24 | -0.0104 | -1.98 | -0.789 | -2.45 | -0.0112 | -3.39
16 | AAGATGT | -0.0553 | -0.0292 | 0.13 | 0.878 | -0.139 | 1.3 | -2.13 | 0.067 | -0.138 | -0.0163
17 | TATGGTG | 0.052 | -0.0151 | -0.613 | -0.644 | 0.0416 | -1.13 | 0.123 | 0.043 | 0.0222 | -0.154
18 | ATGGTGG | -0.101 | -0.228 | -0.267 | -0.209 | -0.209 | -0.845 | 0.0788 | -0.106 | -0.202 | -0.205
19 | GAATTCT | -3.18 | -0.131 | -3.18 | -2.81 | 0.00277 | -1.98 | -3.57 | -2.99 | -0.0317 | -2.99
20 | TGGTAAA | -0.000177 | 0.0518 | 0.386 | 0.518 | -0.0258 | 0.843 | 0.167 | 0.0659 | 0.0513 | 0.0839
21 | TCGTTCA | -0.0574 | -0.0375 | 0.0576 | -0.804 | -0.189 | -0.258 | -0.395 | 0.0447 | -0.0686 | 0.00348
22 | CACACGA | 0.0352 | -0.129 | -0.301 | -0.447 | 0.036 | -0.798 | 0.194 | -0.0827 | -0.138 | -0.00785
23 | CCAGACT | 0.0114 | -0.0535 | -0.16 | -1.21 | -0.201 | 0.675 | -0.0756 | -0.0838 | -0.256 | -0.2
24 | CGCAGGT | -0.022 | -0.0515 | 0.265 | 0.922 | -0.0131 | 1.11 | 0.0763 | 0.0756 | -0.00583 | 0.00881
25 | GGGGTCG | 0.159 | 0.0344 | 0.375 | 0.903 | 0.0873 | 0.822 | 0.289 | 0.121 | 0.0253 | 0.162
26 | CCAGGGC | -0.0938 | -0.022 | -0.129 | 0.000857 | 0.0109 | -0.619 | 0.0563 | -0.157 | -0.1 | -0.0892
27 | TGATGGA | -0.101 | -0.0194 | 0.0281 | -0.195 | -0.0387 | -0.427 | -0.0672 | 0.0147 | -0.117 | -0.0744
28 | GAAAATA | -0.0192 | -0.0242 | 0.107 | -1.73 | 0.013 | 0.723 | 0.011 | 0.0657 | 0.0484 | -0.00471
29 | GTCCTAG | 0.0999 | 0.0794 | 0.351 | 0.683 | 0.0107 | 1.38 | 0.0648 | 0.138 | 0.0256 | 0.0885
30 | CTATTGA | 0.00751 | -0.0456 | -0.497 | -0.644 | 0.0448 | -1.1 | 0.0575 | -0.000664 | -0.0541 | -0.0325
